# The other results are listed elsewhere or left out.
# B1: CVN-E41G (protein)
# chain: MHHHHHHENLYFQSGNFSQACYNSAIQGSVLTSTCIRTNGGYNTSSIDLNSVIANVDGSLKWQGSNFIETCRNTQLAGSSELAAECKTRAQQFVSTKINLDDHIAAIDGTLKYE
# Experiments:
# Test in all cases: glycan array binding signal (z-score within array); higher = stronger binding
# Conditions in all cases: glycan notation: IUPAC condensed, linker removed; mutation: E41A
# [1] = biological target: Gal(b1-4)GlcNAc(b1-3)Gal(b1-4)GlcNAc(b1-2)Man(a1-3)[Gal(b1-4)GlcNAc(b1-3)Gal(b1-4)GlcNAc(b1-2)Man(a1-6)]Man(b1-4)GlcNAc(b1-4)[Fuc(a1-6)]GlcNAc
# How it was run: (§1)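 Negative Z-scores can be read as non-binding. The Z-score is calculated within each array and then averaged across arrays of one protein sequence at different concentrations or buffers and across linkers. Arrays, 3228 in all, were curated from the Consortium for Functional Glycomics database and kept only where the protein sequence was available.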
# [2] = biological target: Gal(b1-4)GlcNAc(b1-3)Gal(b1-4)GlcNAc(b1-2)[Gal(b1-4)GlcNAc(b1-3)Gal(b1-4)GlcNAc(b1-6)]Man(a1-6)[Gal(b1-4)GlcNAc(b1-3)Gal(b1-4)GlcNAc(b1-2)Man(a1-3)]Man(b1-4)GlcNAc(b1-4)GlcNAc
# How it was run: as §1
# [3] = biological target: Gal(b1-4)GlcNAc(b1-3)Gal(b1-4)GlcNAc(b1-2)[Gal(b1-4)GlcNAc(b1-3)Gal(b1-4)GlcNAc(b1-6)]Man(a1-6)[Gal(b1-4)GlcNAc(b1-3)Gal(b1-4)GlcNAc(b1-2)Man(a1-3)]Man(b1-4)GlcNAc(b1-4)[Fuc(a1-6)]GlcNAc
# How it was run: as §1
# [4] = biological target: Gal(b1-4)GlcNAc(b1-3)Gal(b1-4)GlcNAc(b1-3)Gal(b1-4)GlcNAc
# How it was run: as §1
# [5] = biological target: Gal(b1-4)GlcNAc(b1-3)Gal(b1-4)GlcNAc(b1-3)Gal(b1-4)GlcNAc(b1-2)Man(a1-3)[Gal(b1-4)GlcNAc(b1-3)Gal(b1-4)GlcNAc(b1-3)Gal(b1-4)GlcNAc(b1-2)Man(a1-6)]Man(b1-4)GlcNAc(b1-4)GlcNAc
# How it was run: as §1
# [6] = biological target: Gal(b1-4)GlcNAc(b1-3)Gal(b1-4)GlcNAc(b1-3)Gal(b1-4)GlcNAc(b1-2)Man(a1-3)[Gal(b1-4)GlcNAc(b1-3)Gal(b1-4)GlcNAc(b1-3)Gal(b1-4)GlcNAc(b1-2)Man(a1-6)]Man(b1-4)GlcNAc(b1-4)[Fuc(a1-6)]GlcNAc
# How it was run: as §1
# [7] = biological target: Gal(b1-4)GlcNAc(b1-3)Gal(b1-4)GlcNAc(b1-3)Gal(b1-4)GlcNAc(b1-2)[Gal(b1-4)GlcNAc(b1-3)Gal(b1-4)GlcNAc(b1-3)Gal(b1-4)GlcNAc(b1-6)]Man(a1-6)[Gal(b1-4)GlcNAc(b1-3)Gal(b1-4)GlcNAc(b1-3)Gal(b1-4)GlcNAc(b1-2)Man(a1-3)]Man(b1-4)GlcNAc(b1-4)[Fuc(a1-6)]GlcNAc
# How it was run: as §1
# [8] = biological target: Gal(b1-4)GlcNAc(b1-3)Gal(b1-4)GlcNAc(b1-3)Gal(b1-4)GlcNAc(b1-3)Gal(b1-4)GlcNAc(b1-2)Man(a1-3)[Gal(b1-4)GlcNAc(b1-3)Gal(b1-4)GlcNAc(b1-3)Gal(b1-4)GlcNAc(b1-3)Gal(b1-4)GlcNAc(b1-2)Man(a1-6)]Man(b1-4)GlcNAc(b1-4)GlcNAc
# How it was run: as §1
# [9] = biological target: Gal(b1-4)GlcNAc(b1-3)Gal(b1-4)GlcNAc(b1-3)Gal(b1-4)GlcNAc(b1-3)Gal(b1-4)GlcNAc(b1-2)Man(a1-3)[Gal(b1-4)GlcNAc(b1-3)Gal(b1-4)GlcNAc(b1-3)Gal(b1-4)GlcNAc(b1-3)Gal(b1-4)GlcNAc(b1-2)Man(a1-6)]Man(b1-4)GlcNAc(b1-4)[Fuc(a1-6)]GlcNAc
# How it was run: as §1
# [10] = biological target: Gal(b1-4)GlcNAc(b1-3)Gal(b1-4)GlcNAc(b1-3)Gal(b1-4)GlcNAc(b1-3)Gal(b1-4)GlcNAc(b1-2)[Gal(b1-4)GlcNAc(b1-3)Gal(b1-4)GlcNAc(b1-3)Gal(b1-4)GlcNAc(b1-3)Gal(b1-4)GlcNAc(b1-6)]Man(a1-6)[Gal(b1-4)GlcNAc(b1-3)Gal(b1-4)GlcNAc(b1-3)Gal(b1-4)GlcNAc(b1-3)Gal(b1-4)GlcNAc(b1-2)Man(a1-3)]Man(b1-4)GlcNAc(b1-4)[Fuc(a1-6)]GlcNAc
# How it was run: as §1
# [11] = biological target: Gal(b1-4)GlcNAc(b1-3)Gal(b1-4)GlcNAc(b1-3)Gal(b1-4)GlcNAc(b1-3)Gal(b1-4)GlcNAc(b1-3)Gal(b1-4)GlcNAc(b1-2)Man(a1-3)[Gal(b1-4)GlcNAc(b1-3)Gal(b1-4)GlcNAc(b1-3)Gal(b1-4)GlcNAc(b1-3)Gal(b1-4)GlcNAc(b1-3)Gal(b1-4)GlcNAc(b1-2)Man(a1-6)]Man(b1-4)GlcNAc(b1-4)GlcNAc
# How it was run: as §1
# [12] = biological target: Gal(b1-4)GlcNAc(b1-3)Gal(b1-4)GlcNAc(b1-3)Gal(b1-4)GlcNAc(b1-3)Gal(b1-4)GlcNAc(b1-3)Gal(b1-4)GlcNAc(b1-2)Man(a1-3)[Gal(b1-4)GlcNAc(b1-3)Gal(b1-4)GlcNAc(b1-3)Gal(b1-4)GlcNAc(b1-3)Gal(b1-4)GlcNAc(b1-3)Gal(b1-4)GlcNAc(b1-2)Man(a1-6)]Man(b1-4)GlcNAc(b1-4)[Fuc(a1-6)]GlcNAc
# How it was run: as §1
# [13] = biological target: Gal(b1-4)GlcNAc(b1-3)Gal(b1-4)GlcNAc(b1-3)Gal(b1-4)GlcNAc(b1-3)Gal(b1-4)GlcNAc(b1-3)Gal(b1-4)GlcNAc(b1-2)[Gal(b1-4)GlcNAc(b1-3)Gal(b1-4)GlcNAc(b1-3)Gal(b1-4)GlcNAc(b1-3)Gal(b1-4)GlcNAc(b1-3)Gal(b1-4)GlcNAc(b1-6)]Man(a1-6)[Gal(b1-4)GlcNAc(b1-3)Gal(b1-4)GlcNAc(b1-3)Gal(b1-4)GlcNAc(b1-3)Gal(b1-4)GlcNAc(b1-3)Gal(b1-4)GlcNAc(b1-2)Man(a1-3)]Man(b1-4)GlcNAc(b1-4)[Fuc(a1-6)]GlcNAc
# How it was run: as §1
# [14] = biological target: Gal(b1-4)GlcNAc(b1-3)Gal(b1-4)GlcNAc(b1-3)Gal(b1-4)GlcNAc(b1-3)Gal(b1-4)GlcNAc(b1-3)Gal(b1-4)GlcNAc(b1-3)Gal(b1-4)GlcNAc(b1-2)Man(a1-3)[Gal(b1-4)GlcNAc(b1-3)Gal(b1-4)GlcNAc(b1-3)Gal(b1-4)GlcNAc(b1-3)Gal(b1-4)GlcNAc(b1-3)Gal(b1-4)GlcNAc(b1-3)Gal(b1-4)GlcNAc(b1-2)Man(a1-6)]Man(b1-4)GlcNAc(b1-4)GlcNAc
# How it was run: as §1
# [15] = biological target: Gal(b1-4)GlcNAc(b1-3)Gal(b1-4)GlcNAc(b1-3)GalNAc
# How it was run: as §1
# [16] = biological target: Gal(b1-4)GlcNAc(b1-3)Gal(b1-4)GlcNAc(b1-3)[Gal(b1-4)GlcNAc(b1-3)Gal(b1-4)GlcNAc(b1-6)]GalNAc
# How it was run: as §1
# [17] = biological target: Gal(b1-4)GlcNAc(b1-3)Gal(b1-4)GlcNAc(b1-6)[Gal(b1-3)]GalNAc
# How it was run: as §1
# [18] = biological target: Gal(b1-4)GlcNAc(b1-3)Gal(b1-4)[Fuc(a1-3)]GlcNAc(b1-3)Gal(b1-4)[Fuc(a1-3)]GlcNAc
# How it was run: as §1
# [19] = biological target: Gal(b1-4)GlcNAc(b1-3)GalNAc
# How it was run: as §1
# [20] = biological target: Gal(b1-4)GlcNAc(b1-3)[Fuc(a1-3)GlcNAc(b1-6)]Gal(b1-4)Glc
# How it was run: as §1
# [21] = biological target: Gal(b1-4)GlcNAc(b1-3)[Gal(b1-4)GlcNAc(b1-6)]Gal(b1-4)GlcNAc
# How it was run: as §1
# [22] = biological target: Gal(b1-4)GlcNAc(b1-3)[GlcNAc(b1-6)]Gal(b1-4)GlcNAc
# How it was run: as §1
# [23] = biological target: Gal(b1-4)GlcNAc(b1-6)Gal(b1-4)GlcNAc
# How it was run: as §1
# [24] = biological target: Gal(b1-4)GlcNAc(b1-6)GalNAc
# How it was run: as §1
# [25] = biological target: Gal(b1-4)GlcNAc(b1-6)[Gal(b1-3)]GalNAc
# How it was run: as §1
# [26] = biological target: Gal(b1-4)GlcNAc(b1-6)[Gal(b1-4)GlcNAc(b1-3)]GalNAc
# How it was run: as §1
# [27] = biological target: Gal(b1-4)GlcNAc6P
# How it was run: as §1
# [28] = biological target: Gal(b1-6)Gal
# How it was run: as §1
# [29] = biological target: Gal3S(b1-3)GalNAc
# How it was run: as §1
# [30] = biological target: Gal3S(b1-3)GlcNAc
# How it was run: as §1
# [31] = biological target: Gal3S(b1-3)[Fuc(a1-4)]GlcNAc
# How it was run: as §1
# [32] = biological target: Gal3S(b1-4)Glc
# How it was run: as §1
# [33] = biological target: Gal3S(b1-4)Glc6S
# How it was run: as §1
# [34] = biological target: Gal3S(b1-4)GlcNAc
# How it was run: as §1
# [35] = biological target: Gal3S(b1-4)[Fuc(a1-3)]Glc6S
# How it was run: as §1
# [36] = biological target: Gal3S(b1-4)[Fuc(a1-3)]GlcNAc
# How it was run: as §1
# [37] = biological target: Gal3S(b1-4)[Fuc(a1-3)]GlcNAc6S
# How it was run: as §1
# [38] = biological target: Gal3S4S(b1-4)GlcNAc
# How it was run: as §1
# [39] = biological target: Gal3S6S(b1-4)GlcNAc
# How it was run: as §1
# [40] = biological target: Gal3S6S(b1-4)GlcNAc6S
# How it was run: as §1
# [41] = biological target: Gal4S(b1-4)GlcNAc
# How it was run: as §1
# [42] = biological target: Gal4S6S(b1-4)GlcNAc
# How it was run: as §1
# [43] = biological target: Gal6P(b1-4)GlcNAc
# How it was run: as §1
# [44] = biological target: Gal6S(b1-3)GlcNAc
# How it was run: as §1
# [45] = biological target: Gal6S(b1-3)GlcNAc6S
# How it was run: as §1
binder,measurement,setting,value
B1,glycan array binding signal (z-score),[1],-0.219
same,glycan array binding signal (z-score),[2],0.189
same,glycan array binding signal (z-score),[3],-0.12
same,glycan array binding signal (z-score),[4],-0.22
same,glycan array binding signal (z-score),[5],-0.071
same,glycan array binding signal (z-score),[6],-0.164
same,glycan array binding signal (z-score),[7],-0.141
same,glycan array binding signal (z-score),[8],-0.186
same,glycan array binding signal (z-score),[9],-0.178
same,glycan array binding signal (z-score),[10],-0.164
same,glycan array binding signal (z-score),[11],-0.17
same,glycan array binding signal (z-score),[12],-0.139
same,glycan array binding signal (z-score),[13],-0.112
same,glycan array binding signal (z-score),[14],-0.142
same,glycan array binding signal (z-score),[15],-0.093
same,glycan array binding signal (z-score),[16],0.156
same,glycan array binding signal (z-score),[17],-0.166
same,glycan array binding signal (z-score),[18],0.012
same,glycan array binding signal (z-score),[19],-0.226
same,glycan array binding signal (z-score),[20],0.2
same,glycan array binding signal (z-score),[21],-0.191
same,glycan array binding signal (z-score),[22],-0.197
same,glycan array binding signal (z-score),[23],-0.239
same,glycan array binding signal (z-score),[24],-0.193
same,glycan array binding signal (z-score),[25],-0.199
same,glycan array binding signal (z-score),[26],-0.215
same,glycan array binding signal (z-score),[27],-0.215
same,glycan array binding signal (z-score),[28],-0.181
same,glycan array binding signal (z-score),[29],-0.125
same,glycan array binding signal (z-score),[30],-0.23
same,glycan array binding signal (z-score),[31],-0.194
same,glycan array binding signal (z-score),[32],-0.201
same,glycan array binding signal (z-score),[33],-0.219
same,glycan array binding signal (z-score),[34],-0.218
same,glycan array binding signal (z-score),[35],-0.037
same,glycan array binding signal (z-score),[36],-0.199
same,glycan array binding signal (z-score),[37],-0.109
same,glycan array binding signal (z-score),[38],-0.204
same,glycan array binding signal (z-score),[39],0.005
same,glycan array binding signal (z-score),[40],-0.212
same,glycan array binding signal (z-score),[41],-0.223
same,glycan array binding signal (z-score),[42],-0.249
same,glycan array binding signal (z-score),[43],-0.099
same,glycan array binding signal (z-score),[44],-0.221
same,glycan array binding signal (z-score),[45],-0.217
